# Experimental data as given in PubChem BioAssay AID686979 (National Center for Advancing Translational Sciences (NCATS), 2013).
# Screen size: about 420,000 compounds; about 50,000 (12%) were called active. Inconclusive means that the source gave no clear call. Such entries were picked first, then a sample of the others. Calls follow the shape of the dose curve; as a rule, active = well fitted inhibition curve with a large enough effect; inconclusive = small, poorly fitted or top-dose-only effect; inactive = flat fitted curve, though single readings scatter. Potencies of inconclusive entries are left out as doubtful fits.
# Experiment: qHTS for Inhibitors of human tyrosyl-DNA phosphodiesterase 1 (TDP1): qHTS in cells in presence of CPT; also: nearly all actives have a fitted effect of over 55% in size
# Settings: chicken DT40 Tdp1-/-;hTDP1 cells + 20 nM CPT, ATP luminescence, 48 h; series mostly up to 46.2 µM
# Outline: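 Chicken DT40 Tdp1-/- cells stably complemented with human TDP1 were seeded at 400 cells/well in medium containing 20 nM camptothecin, exposed to pin-transferred compounds, and grown at 37 °C for at least 48 hr. Viability was read as ATP luminescence.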
# Potency is read from the fitted curve at half-maximal effect; tags tell the direction and shape of the fitted curve.
row,SMILES,Potency
1,NC(=O)CSc1cn(Cc2ccccc2)c2ccccc12,"inconclusive [inhibitor, single point]"
2,COc1ccc(CCNC(=O)CCS(=O)(=O)c2ccc3c(c2)NC(=O)CO3)cc1OC,inactive
3,Cc1cc(=O)n2c3ccccc3n(CC(O)CN3CCCCC3)c2c1C#N (stereo not given),"inconclusive [inhibitor, single point]"
4,Cc1nc2ccccn2c1-c1ccnc(SCc2ccc(Cl)cc2)n1,"inconclusive [inhibitor, single point]"
5,COc1ccc(-c2nc(S(=O)(=O)c3ccccc3)c(N3CCN(C)CC3)o2)cc1,"inconclusive [inhibitor, single point]"
6,CCOC(=O)c1cccc(-c2c(-c3ccccc3)ncc3cc(OC)c(OC)cc23)c1,"inconclusive [inhibitor, single point]"
7,CC1(C)Cc2c(ccc3ccccc23)C(=O)N1,"inconclusive [inhibitor, partial curve]"
8,CC1Cc2nc(SCC(=O)NCC3CCCO3)n(-c3ccc(F)cc3)c(=O)c2S1 (stereo not given),inactive
9,COc1ccc(NC(=S)N2CCC(C(=O)c3ccc(C)cc3)CC2)c(OC)c1,active: 13 µM
10,COc1ccc(N(C(C)C(=O)NCCSCc2cccc(Cl)c2)S(C)(=O)=O)cc1 (stereo not given),"inconclusive [inhibitor, single point]"
11,O=C(NCc1ccccc1)C1C(c2ccc3c(c2)OCO3)=Nc2ccccc2N1C(=O)c1ccco1 (stereo not given),"inconclusive [inhibitor, single point]"
12,O=[N+]([O-])CC1(n2nc3ccccc3n2)CCCCC1,inactive
13,O=c1cc(N2CCCCC2)c(-c2ccccc2)nn1Cc1ccccc1,"inconclusive [inhibitor, single point]"
14,Cc1ccc(NC(=O)N2CCCC2C(=O)NCc2ccc(Cl)cc2)cc1 (stereo not given),inactive
15,Nc1nc(N)c2c(ccc3nccc32)[nH]1,active: 1.84 µM
16,COc1ccc(NC(=O)C(C/C=C(/C)Cl)C(C)=O)cc1 (stereo not given),"inconclusive [inhibitor, single point]"
17,CNCc1cc(C)n(-c2cc(S(=O)(=O)N3CCOCC3)ccc2N2CCCC2)c1C,"inconclusive [inhibitor, single point]"
18,COc1cccc(-c2sc3ccc(OC)cc3c2-c2cc(F)cc(OC)c2)c1,inactive
19,Cc1cc(/C=C2\NC(=O)NC2=O)c(C)n1-c1ccc(N2CCOCC2)cc1,"inconclusive [inhibitor, single point]"
20,CCN(CC)CCCCN1c2ccccc2Sc2ccccc21,active: 20.6 µM
